# PubChem BioAssay AID504706 (National Center for Advancing Translational Sciences (NCATS), 2011)
# Out of some 320,000 compounds screened, about 200 (0.062%) were called active. The shares of active, inactive and inconclusive entries below differ from those in the screen. Calls come from the whole dose curve; as a rule, active = well fitted activation curve with a large enough effect; inconclusive = small, poorly fitted or top-dose-only effect; inactive = no such curve, though single readings can be large or run the other way. Potencies of inconclusive entries are left out as doubtful fits.
# Assay: qHTS assay for re-activators of p53 using a Luc reporter; note: nearly all actives have a fitted effect of over 45% in size
# Conditions: H1299 p53-A138V BP100-luciferase reporter, luminescence, 24 h; series mostly up to 92.2 µM
# How it was run: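 p53-null H1299 cells stably carrying temperature-sensitive p53-A138V and a BP100-luciferase reporter were pinned with compounds (4-point, 1:5 series) and held 24 hrs at 37 deg C. Luminescence was read 10 min after detection reagent.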
# Potency is the fitted concentration of half-maximal effect; tags give direction and shape of the fitted curve.
row,SMILES,Potency
1,CC1CCN(c2ccc(NC(=S)NC(=O)c3ccco3)cc2)CC1,"inconclusive [activator, full curve, poor fit]"
2,Cc1ccc(C(=O)C(C)OC(=O)C2CCN(c3ccc(C(F)(F)F)cn3)CC2)cc1C (stereo not drawn),inactive
3,O=C1C(C=Nc2ccc(F)cc2)=C(O)c2ccccc21,"inconclusive [activator, partial curve, poor fit]"
4,O=C(N/N=C/c1ccc(-c2ccccc2C(=O)O)o1)c1cccs1,"inconclusive [activator, partial curve, poor fit]"
5,NC(=O)C1CC(=O)N(c2ccc(OCC(=O)Nc3ccccc3F)cc2)C1 (stereo not drawn),"inconclusive [activator, partial curve, poor fit]"
6,COc1ccc(OC)c(S(=O)(=O)NCc2ccccn2)c1,inactive
7,Cc1cccc(Oc2ccc(Cl)cc2N)c1,"inconclusive [activator, partial curve, poor fit]"
8,CCC(=O)NCCc1nc2cc(NC(=O)c3ccc(OC)cc3)ccc2n1C,"inconclusive [activator, partial curve, poor fit]"
9,O=C(NCCOc1ccccc1)c1cncc(Br)c1,"inconclusive [activator, full curve, poor fit]"
10,CCOC(=O)C1CCCN(C(=O)c2cccc(S(=O)(=O)N(C)c3c(C)n(C)n(-c4ccccc4)c3=O)c2)C1 (stereo not drawn),"inconclusive [activator, single point]"
11,CC(C)(C)c1csc(NC2=NS(=O)(=O)c3ccccc32)n1,"inconclusive [activator, partial curve]"
12,O=C(NC(=S)NC1CCCC1)c1ccccc1,"inconclusive [activator, partial curve, poor fit]"
13,COc1ccc(-c2coc3cc(OC4OC(CO)C(O)C(O)C4O)ccc3c2=O)cc1 (stereo not drawn),"inconclusive [activator, partial curve, poor fit]"
14,Cc1cc(NC(=O)CCOc2ccccc2)no1,"inconclusive [activator, single point]"
15,Cc1csc(NC(=O)c2ccc3c(=O)n4c(nc3c2)CCCCC4)n1,"inconclusive [activator, full curve, poor fit]"
16,Cc1cc2ccccn2c1C(=O)c1nc(NCc2ccccc2)ncc1Cl,"inconclusive [activator, single point]"
17,COCCC1CCCCN1C(=O)c1cc(COc2cccc(C(C)=O)c2)on1 (stereo not drawn),inactive
18,CC(=O)Nc1ccc(Nc2ccccc2)cc1,inactive
19,Cn1cccc1/C=C1\CCc2ccccc2C1=O,"inconclusive [activator, full curve, poor fit]"
20,O=c1c2ccccc2[nH]c(=S)n1CCc1ccccc1,inactive
21,COc1cccc(C(=O)N/N=C(\C)CC(=O)Nc2ccc(N(C)C)cc2)c1,inactive
22,CN1CCN(c2ccc(NC(=O)Cc3ccccc3)cc2)CC1,"inconclusive [activator, partial curve, poor fit]"
23,Cc1cc(=O)oc2cc(Oc3ccc([N+](=O)[O-])cc3[N+](=O)[O-])ccc12,inactive

row,SMILES,Potency
1,Cc1cc(O)c(C2=Nc3ccccc3SC(c3ccc(Cl)cc3)C2)c(=O)o1 (stereo not drawn),"inconclusive [activator, full curve, poor fit]"
2,O=C(CSc1ccccc1F)Nc1ccc(N2CCOCC2)cc1,"inconclusive [activator, partial curve, poor fit]"
3,CC(=O)c1ccc(S(=O)(=O)N2CCN(C(=O)c3ccc(-n4cncn4)c([N+](=O)[O-])c3)CC2)cc1,"inconclusive [activator, partial curve, poor fit]"
4,CCOC(=O)N1CCN(C(=O)CCSc2ccccc2)CC1,"inconclusive [activator, partial curve, poor fit]"
5,Cc1ccc(NC(=O)C(=O)c2ccc(C)cc2)cc1,"inconclusive [activator, partial curve, poor fit]"
6,CN1CCN(C(=O)Cn2ncc3c([nH]c4ccccc43)c2=O)CC1,inactive
7,O=C(CCc1ccccc1)NNC(=O)CCc1ccccc1,"inconclusive [activator, partial curve, poor fit]"
8,CC1(c2ccc([N+](=O)[O-])cc2)Nc2ccccc2S1 (stereo not drawn),"inconclusive [activator, full curve, poor fit]"
9,COc1ccc(CCNc2oc(-c3ccc(OC)c(OC)c3)nc2P(=O)(OC)OC)cc1OC,inactive
10,COc1ccc(C(=O)Nc2cccc(NC(=O)c3ccc(OC)c(OC)c3)n2)cc1OC,inactive
11,O=C(NCc1ccccc1)Nc1cccn(Cc2cccc(F)c2)c1=O,"inconclusive [activator, single point]"
12,CCCCOc1ccc(-c2ncc(Cl)cn2)cc1,"inconclusive [activator, partial curve, poor fit]"
13,COc1ccc(N2C(=O)c3ccccc3NC23CCCCC3)cc1,"inconclusive [activator, partial curve, poor fit]"
14,Cc1[nH]n(-c2ccccc2)c(=O)c1C(=O)Nc1ccccc1,inactive
15,CCCC(=O)Nc1ccccc1NC(=O)CCC,"inconclusive [activator, single point]"
16,Cc1nc(Nc2ccccc2F)c2nnn(Cc3ccccc3Cl)c2n1,"inconclusive [activator, single point]"
17,CC(=O)c1cccc(N=Nc2c(C)[nH]c3ccccc23)c1,"inconclusive [activator, partial curve, poor fit]"
18,COc1ccccc1/C=C1\SC(=S)N(CCC(=O)NCCc2ccc(O)cc2)C1=O,"inconclusive [activator, full curve, poor fit]"
19,O=C(CSc1nnc(C2CC2)n1C1CC1)c1ccccc1F,"inconclusive [activator, single point]"
20,CNS(=O)(=O)c1cccc(C(=O)OCC(=O)c2c(N)n(C)c(=O)n(C)c2=O)c1,inactive
21,CCOc1ccc(NC(=O)NN2C(C)CCCC2C)cc1 (stereo not drawn),inactive
22,Cc1nn(-c2ccccc2)c(N)c1N=Nc1ccc2ccccc2c1,"inconclusive [activator, partial curve, poor fit]"
23,Cc1ccc(/C=N/Nc2nc3ccccc3[nH]2)s1,"inconclusive [activator, full curve, poor fit]"

row,SMILES,Potency
1,O=C(N/N=C/c1cccc(F)c1)c1c(O)c2c([nH]c1=O)CCCC2,"inconclusive [activator, partial curve, poor fit]"
2,O=C(OCC(=O)c1c[nH]c2ccccc12)c1ccco1,"inconclusive [activator, full curve, poor fit]"
3,COc1ccccc1CNC(=O)c1ccccc1C(=O)NC(C)(C)C(=O)NCc1ccccc1OC,inactive
4,CCOCc1cnc(C)nc1NCC(=O)c1c(C)n(C)c2ccc(OC)cc12,"inconclusive [activator, single point]"
5,CC(=O)Nc1nc(-c2cc([N+](=O)[O-])cs2)cs1,inactive
6,COc1ccc2cc3c(N)nn(C(=O)c4ccc(Cl)c([N+](=O)[O-])c4)c3nc2c1,inactive
7,FC(F)(F)c1cc(-c2ccc(Cl)cc2)nc(NCc2cccnc2)n1,inactive
8,CCc1nc(SCc2ccc([N+](=O)[O-])cc2)n[nH]1,"inconclusive [activator, partial curve, poor fit]"
9,COc1cccc(OC)c1NC(=O)Cn1nc(C)c2ccccc2c1=O,inactive
10,COc1cccc2c1C(=O)O/C2=C/c1ccc2c(c1)OCO2,"inconclusive [activator, full curve, poor fit]"
11,COc1cc(/C=N/OCC(=O)Nc2cc(C)on2)ccc1OCc1ccccc1,"inconclusive [activator, partial curve, poor fit]"
12,Cn1c(C(=O)N2CCc3ccccc3C2)cc2oc3ccccc3c21,"inconclusive [activator, partial curve, poor fit]"
13,Cc1ccc(OCC(=O)Nc2ccc(S(=O)(=O)N(C)C3CCN(C)CC3)cc2)c(C)c1,"inconclusive [activator, partial curve, poor fit]"
14,O=C(N/N=C/c1ccc(OC(=O)c2ccc(Br)cc2)cc1)c1ccncc1,inactive
15,O=C(COC(=O)c1cccc(N2C(=O)C3CC=CCC3C2=O)c1)c1ccccc1 (stereo not drawn),"inconclusive [activator, partial curve, poor fit]"
16,CCOC(=O)c1c(NC(=O)c2ccccc2)sc2c1CCc1ccccc1-2,inactive
17,O=C(Nc1ccc(F)c(F)c1)NC1CCCCC1,"inconclusive [activator, partial curve, poor fit]"
18,Cc1cc(C)n(-c2ccc(C(=O)Nc3sccc3C(N)=O)cc2)n1,"inconclusive [activator, partial curve, poor fit]"
19,O=C(Nc1nnc(Cc2ccccc2)s1)C1CCC1,"inconclusive [activator, single point]"
20,Cc1ccc(C2=Nc3ccccc3NC(C)(c3ccc(C)o3)C2)o1 (stereo not drawn),"inconclusive [activator, partial curve, poor fit]"
21,Cc1ccc(C(=O)N2N=C(c3ccccc3)CC2(O)C(F)(F)F)o1 (stereo not drawn),inactive
22,Cc1ccc2c(c1C)NC(C(=O)O)C1CC=CC21 (stereo not drawn),inactive
